The other results are listed elsewhere or left out.
Assays:
Assay in all cases: glycan array binding signal (z-score within array); higher = stronger binding
Conditions in all cases: glycan notation: IUPAC condensed, linker removed
[1] = target: Gal(b1-4)GlcNAc(b1-2)[Gal(b1-4)GlcNAc(b1-6)]Man(a1-6)[Gal(b1-4)GlcNAc(b1-2)Man(a1-3)]Man(b1-4)GlcNAc(b1-4)[Fuc(a1-6)]GlcNAc
Summary of the method: (§1)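 Glycan array data came from 3228 arrays in the Consortium for Functional Glycomics database, and only arrays with an available protein sequence were kept. Glycan names were put into IUPAC-condensed notation, and columns mapping to the same glycan were averaged. The binding signal is a within-array Z-score, averaged across arrays of one protein sequence run at different concentrations or buffers and across linkers. A negative Z-score can be read as non-binding.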

[2] = target: Gal(b1-4)GlcNAc(b1-2)[Gal(b1-4)GlcNAc(b1-6)]Man(a1-6)[GlcNAc(b1-4)][Gal(b1-4)GlcNAc(b1-2)Man(a1-3)]Man(b1-4)GlcNAc(b1-4)GlcNAc
Summary of the method: as §1

[3] = target: Gal(b1-4)GlcNAc(b1-2)[Gal(b1-4)GlcNAc(b1-6)]Man(a1-6)[GlcNAc(b1-4)][Gal(b1-4)GlcNAc(b1-2)[Gal(b1-4)GlcNAc(b1-4)]Man(a1-3)]Man(b1-4)GlcNAc(b1-4)[Fuc(a1-6)]GlcNAc
Summary of the method: as §1

[4] = target: Gal(b1-4)GlcNAc(b1-3)Gal(b1-3)GalNAc
Summary of the method: as §1

[5] = target: Gal(b1-4)GlcNAc(b1-3)Gal(b1-3)GlcNAc
Summary of the method: as §1

[6] = target: Gal(b1-4)GlcNAc(b1-3)Gal(b1-4)Glc
Summary of the method: as §1

[7] = target: Gal(b1-4)GlcNAc(b1-3)Gal(b1-4)GlcNAc
Summary of the method: as §1

[8] = target: Gal(b1-4)GlcNAc(b1-3)Gal(b1-4)GlcNAc(b1-2)Man(a1-3)[Gal(b1-4)GlcNAc(b1-3)Gal(b1-4)GlcNAc(b1-2)Man(a1-6)]Man(b1-4)GlcNAc(b1-4)GlcNAc
Summary of the method: as §1

[9] = target: Gal(b1-4)GlcNAc(b1-3)Gal(b1-4)GlcNAc(b1-2)Man(a1-3)[Gal(b1-4)GlcNAc(b1-3)Gal(b1-4)GlcNAc(b1-2)Man(a1-6)]Man(b1-4)GlcNAc(b1-4)[Fuc(a1-6)]GlcNAc
Summary of the method: as §1

[10] = target: Gal(b1-4)GlcNAc(b1-3)Gal(b1-4)GlcNAc(b1-2)[Gal(b1-4)GlcNAc(b1-3)Gal(b1-4)GlcNAc(b1-6)]Man(a1-6)[Gal(b1-4)GlcNAc(b1-3)Gal(b1-4)GlcNAc(b1-2)Man(a1-3)]Man(b1-4)GlcNAc(b1-4)GlcNAc
Summary of the method: as §1

[11] = target: Gal(b1-4)GlcNAc(b1-3)Gal(b1-4)GlcNAc(b1-2)[Gal(b1-4)GlcNAc(b1-3)Gal(b1-4)GlcNAc(b1-6)]Man(a1-6)[Gal(b1-4)GlcNAc(b1-3)Gal(b1-4)GlcNAc(b1-2)Man(a1-3)]Man(b1-4)GlcNAc(b1-4)[Fuc(a1-6)]GlcNAc
Summary of the method: as §1

[12] = target: Gal(b1-4)GlcNAc(b1-3)Gal(b1-4)GlcNAc(b1-3)Gal(b1-4)GlcNAc
Summary of the method: as §1

[13] = target: Gal(b1-4)GlcNAc(b1-3)Gal(b1-4)GlcNAc(b1-3)Gal(b1-4)GlcNAc(b1-2)Man(a1-3)[Gal(b1-4)GlcNAc(b1-3)Gal(b1-4)GlcNAc(b1-3)Gal(b1-4)GlcNAc(b1-2)Man(a1-6)]Man(b1-4)GlcNAc(b1-4)GlcNAc
Summary of the method: as §1

[14] = target: Gal(b1-4)GlcNAc(b1-3)Gal(b1-4)GlcNAc(b1-3)Gal(b1-4)GlcNAc(b1-2)Man(a1-3)[Gal(b1-4)GlcNAc(b1-3)Gal(b1-4)GlcNAc(b1-3)Gal(b1-4)GlcNAc(b1-2)Man(a1-6)]Man(b1-4)GlcNAc(b1-4)[Fuc(a1-6)]GlcNAc
Summary of the method: as §1

[15] = target: Gal(b1-4)GlcNAc(b1-3)Gal(b1-4)GlcNAc(b1-3)Gal(b1-4)GlcNAc(b1-2)[Gal(b1-4)GlcNAc(b1-3)Gal(b1-4)GlcNAc(b1-3)Gal(b1-4)GlcNAc(b1-6)]Man(a1-6)[Gal(b1-4)GlcNAc(b1-3)Gal(b1-4)GlcNAc(b1-3)Gal(b1-4)GlcNAc(b1-2)Man(a1-3)]Man(b1-4)GlcNAc(b1-4)[Fuc(a1-6)]GlcNAc
Summary of the method: as §1

[16] = target: Gal(b1-4)GlcNAc(b1-3)Gal(b1-4)GlcNAc(b1-3)Gal(b1-4)GlcNAc(b1-3)Gal(b1-4)GlcNAc(b1-2)Man(a1-3)[Gal(b1-4)GlcNAc(b1-3)Gal(b1-4)GlcNAc(b1-3)Gal(b1-4)GlcNAc(b1-3)Gal(b1-4)GlcNAc(b1-2)Man(a1-6)]Man(b1-4)GlcNAc(b1-4)GlcNAc
Summary of the method: as §1

[17] = target: Gal(b1-4)GlcNAc(b1-3)Gal(b1-4)GlcNAc(b1-3)Gal(b1-4)GlcNAc(b1-3)Gal(b1-4)GlcNAc(b1-2)Man(a1-3)[Gal(b1-4)GlcNAc(b1-3)Gal(b1-4)GlcNAc(b1-3)Gal(b1-4)GlcNAc(b1-3)Gal(b1-4)GlcNAc(b1-2)Man(a1-6)]Man(b1-4)GlcNAc(b1-4)[Fuc(a1-6)]GlcNAc
Summary of the method: as §1

[18] = target: Gal(b1-4)GlcNAc(b1-3)Gal(b1-4)GlcNAc(b1-3)Gal(b1-4)GlcNAc(b1-3)Gal(b1-4)GlcNAc(b1-2)[Gal(b1-4)GlcNAc(b1-3)Gal(b1-4)GlcNAc(b1-3)Gal(b1-4)GlcNAc(b1-3)Gal(b1-4)GlcNAc(b1-6)]Man(a1-6)[Gal(b1-4)GlcNAc(b1-3)Gal(b1-4)GlcNAc(b1-3)Gal(b1-4)GlcNAc(b1-3)Gal(b1-4)GlcNAc(b1-2)Man(a1-3)]Man(b1-4)GlcNAc(b1-4)[Fuc(a1-6)]GlcNAc
Summary of the method: as §1

[19] = target: Gal(b1-4)GlcNAc(b1-3)Gal(b1-4)GlcNAc(b1-3)Gal(b1-4)GlcNAc(b1-3)Gal(b1-4)GlcNAc(b1-3)Gal(b1-4)GlcNAc(b1-2)Man(a1-3)[Gal(b1-4)GlcNAc(b1-3)Gal(b1-4)GlcNAc(b1-3)Gal(b1-4)GlcNAc(b1-3)Gal(b1-4)GlcNAc(b1-3)Gal(b1-4)GlcNAc(b1-2)Man(a1-6)]Man(b1-4)GlcNAc(b1-4)GlcNAc
Summary of the method: as §1

[20] = target: Gal(b1-4)GlcNAc(b1-3)Gal(b1-4)GlcNAc(b1-3)Gal(b1-4)GlcNAc(b1-3)Gal(b1-4)GlcNAc(b1-3)Gal(b1-4)GlcNAc(b1-2)Man(a1-3)[Gal(b1-4)GlcNAc(b1-3)Gal(b1-4)GlcNAc(b1-3)Gal(b1-4)GlcNAc(b1-3)Gal(b1-4)GlcNAc(b1-3)Gal(b1-4)GlcNAc(b1-2)Man(a1-6)]Man(b1-4)GlcNAc(b1-4)[Fuc(a1-6)]GlcNAc
Summary of the method: as §1

[21] = target: Gal(b1-4)GlcNAc(b1-3)Gal(b1-4)GlcNAc(b1-3)Gal(b1-4)GlcNAc(b1-3)Gal(b1-4)GlcNAc(b1-3)Gal(b1-4)GlcNAc(b1-2)[Gal(b1-4)GlcNAc(b1-3)Gal(b1-4)GlcNAc(b1-3)Gal(b1-4)GlcNAc(b1-3)Gal(b1-4)GlcNAc(b1-3)Gal(b1-4)GlcNAc(b1-6)]Man(a1-6)[Gal(b1-4)GlcNAc(b1-3)Gal(b1-4)GlcNAc(b1-3)Gal(b1-4)GlcNAc(b1-3)Gal(b1-4)GlcNAc(b1-3)Gal(b1-4)GlcNAc(b1-2)Man(a1-3)]Man(b1-4)GlcNAc(b1-4)[Fuc(a1-6)]GlcNAc
Summary of the method: as §1

[22] = target: Gal(b1-4)GlcNAc(b1-3)Gal(b1-4)GlcNAc(b1-3)Gal(b1-4)GlcNAc(b1-3)Gal(b1-4)GlcNAc(b1-3)Gal(b1-4)GlcNAc(b1-3)Gal(b1-4)GlcNAc(b1-2)Man(a1-3)[Gal(b1-4)GlcNAc(b1-3)Gal(b1-4)GlcNAc(b1-3)Gal(b1-4)GlcNAc(b1-3)Gal(b1-4)GlcNAc(b1-3)Gal(b1-4)GlcNAc(b1-3)Gal(b1-4)GlcNAc(b1-2)Man(a1-6)]Man(b1-4)GlcNAc(b1-4)GlcNAc
Summary of the method: as §1

[23] = target: Gal(b1-4)GlcNAc(b1-3)Gal(b1-4)GlcNAc(b1-3)GalNAc
Summary of the method: as §1

## APVPVTKLVCDGDTYKCTAYLDFGDGRWVAQWDTNVFHTG [PhoSpL (Pholiota squarrosa)]
[1]
  glycan array binding signal (z-score): 8.42
[2]
  glycan array binding signal (z-score): -0.499
[3]
  glycan array binding signal (z-score): 0.118
[4]
  glycan array binding signal (z-score): 0.26
[5]
  glycan array binding signal (z-score): 0.027
[6]
  glycan array binding signal (z-score): -0.094
[7]
  glycan array binding signal (z-score): -0.286
[8]
  glycan array binding signal (z-score): 0.485
[9]
  glycan array binding signal (z-score): 1.94
[10]
  glycan array binding signal (z-score): 0.267
[11]
  glycan array binding signal (z-score): 0.945
[12]
  glycan array binding signal (z-score): -0.517
[13]
  glycan array binding signal (z-score): 0.178
[14]
  glycan array binding signal (z-score): 1.14
[15]
  glycan array binding signal (z-score): 0.552
[16]
  glycan array binding signal (z-score): -0.638
[17]
  glycan array binding signal (z-score): 0.769
[18]
  glycan array binding signal (z-score): 0.181
[19]
  glycan array binding signal (z-score): -1.09
[20]
  glycan array binding signal (z-score): 0.488
[21]
  glycan array binding signal (z-score): 0.718
[22]
  glycan array binding signal (z-score): -0.452
[23]
  glycan array binding signal (z-score): 0.431

— the supplement of paper PMC8728848
